Laboratory results as given in PMC12136788.
This is one part of the list.

B1: ENSG00000087470:stop:overlap|stop_codon|ENSG00000087470|stop_codon|NA|stop_codon (ssRNA)
RNA: GGGAGUUCUACAGUCCGACGAUCAUAUGGCAACAUCAGAGGCACUUAAAAUUUCAAGAGAGGUAGAUCCAGAUGGAGCCAGCUAGAUAUUAACAACAAGAAGAGUGUAACUGAUUCAAUCCGUGAUGAGUAUGCUUUUCUUCACAACAGAGGAUUGAGCAUCA
B2: chr2:120221238:120221343:-|3pUTR|ENSG00000226479|unk|FALSE|bound_elsewhere (ssRNA)
RNA: GGGAGUUCUACAGUCCGACGAUCAUAUGUUGAAUUCUAGUUCUCUGCAUUACCAUUAUUACGUUAAAGUAUUUUUUAAAGCUUAGGUGUGAAGAUAUGUGUCUAUUGCAGAUGUCCUUGAAAACUGCAUAAAACAGUAUGUGCCAACAGAGGAUUGAGCAUCA
B3: chr5:132696315:132696416:-|3pUTR|ENSG00000131437|msi1|FALSE|unique (ssRNA)
RNA: GGGAGUUCUACAGUCCGACGAUCGUUGUACUACUACUCUUCAAUUGUACUGUGCAGGGAAGUUGGGGGAACAGUUCAUACUAUAGAGAGUUACAGUUUAGAUGUAUGUGUAAAUCGAUUAGCUAUUUAUCCAACUACUGUAUACAACAGAGGAUUGAGCAUCA
B4: ENSG00000198589:be:win_7601|CDS|ENSG00000198589|bound_else_gene|NA|bound_elsewhere_windowed (ssRNA)
RNA: GGGAGUUCUACAGUCCGACGAUCUUGCGGUGAACAAAUGGCACAACCUUCCUGCUCAUCAAGGUGCUGUACAAGACCAGCCAUACCAGCUGCCAGUGGAAAUCGAUCCUCUCAUAGCCAGCAAUACAGGAAUGCACAGGAGGCCAACAGAGGAUUGAGCAUCA
B5: chr10:117284474:117284575:-|CDS|ENSG00000165650|msi1|FALSE|bound_elsewhere (ssRNA)
RNA: GGGAGUUCUACAGUCCGACGAUCAUUGCAUUGUGGUGCAGGGAUCCUUUCAAGUUGGGAGGUCUCAUCUGUUUGGGGCAUGUUAGUUUAAAACUUGAAGAUGUGGCUUUAGGAUGCCUAGCUACAUCAAACACGGAAUACCUUCAACAGAGGAUUGAGCAUCA
B6: chr5:38481646:38481747:-|CDS|ENSG00000113594|unk|total|mutant (ssRNA)
RNA: GGGAGUUCUACAGUCCGACGAUCCAGACCUCAGGCCAAUGUAAAUACAUGGAAUUCCGUGUCUCCAGACUCUCCCCGAUCCACCGACAGCAACAGUGAGAUUGUCUCAUUUGGAAGUCCAUGCUCCAUUAAUUCCCGACAAUUCAACAGAGGAUUGAGCAUCA
B7: chr17:35273046:35273147:+|3pUTR|ENSG00000166750|unk|total|mutant (ssRNA)
RNA: GGGAGUUCUACAGUCCGACGAUCAUUCCUAAGAGCAGAAGACUGCAAAACCGUAAAUAUAUACCCAAAAGGGUCUAAUGGAUCCGUUUUUGGCAUAUCAGCACAUGAUAAUACUAUGAAGCCAUAAAAAAGAGAGAUCUCUAUCAACAGAGGAUUGAGCAUCA
B8: chr11:123627604:123627705:+|3pUTR|ENSG00000023171|unk|FALSE|unique (ssRNA)
RNA: GGGAGUUCUACAGUCCGACGAUCAUUUGGAUCUAUAACUGUACUUUGCCUGGCGCUGUGCGCAAGGUCAGAAAACUUACUGCUAGUACCUAGAAACACACAAGGCUGCCCAGCCAAAUCUUAAUGUAAAGUAGCUAGAGCCAUCAACAGAGGAUUGAGCAUCA
B9: chr16:23064695:23064796:-|3pUTR|ENSG00000103404|msi1|total|mutant (ssRNA)
RNA: GGGAGUUCUACAGUCCGACGAUCGUUUAUGGAGGGCCUUCUUUGAGCACAGAGGCAAAACUGAAAGCUUCAGGGAUUUGCUGCCGCUGAGGAGCCCUGGGAGCACAGCCCAUCAAGCAAGGGAUGUGAUGGUGUCCUAAAUGGCAACAGAGGAUUGAGCAUCA
B10: chr1:67003359:67003460:-|3pUTR|ENSG00000116704|msi1|FALSE|unique (ssRNA)
RNA: GGGAGUUCUACAGUCCGACGAUCACUCAAAAGCCGCAAAUCUGUAAAUUGGAUUAAGAACACCUGCCCUACCUACCCGGCAAUAGUGUGAAUCCAAAUGCUGCAAUGUGAGAUGAGGUACAAGUAAAGAGCUGUGUUUUGUAACAACAGAGGAUUGAGCAUCA
B11: chr13:99866285:99866388:+|CDS|ENSG00000125246|unk|FALSE|unique (ssRNA)
RNA: GGGAGUUCUACAGUCCGACGAUCUAUUCUCUACGCCCGGCAAAAGAUUGUUGUCAUAGCGAAAGCCUUUGGUCUCCAAGCCAUAGAUCUGGUGUACAUUGACUUUCGAGAUGGAGCUGGGCUGCUUAGACAGUCACGAGAAGGCAACAGAGGAUUGAGCAUCA
B12: chr12:56416428:56416529:-|3pUTR|ENSG00000111602|msi1|total|mutant (ssRNA)
RNA: GGGAGUUCUACAGUCCGACGAUCAUGUUCUUACCCAUUCUUGGAAACGUCAGCUUUCUUGCUUCCUGUGCUUCCAGCCGAGGCCGGGCAAAGGUGAGAUUGAGAAAACCGCCAUUCAGCUCAGGAAGGCUUCUAAGUAAAGGACAACAGAGGAUUGAGCAUCA
B13: chr7:132784869:132785660:-|three_prime_utr|ENSG00000106554|control|control|control (ssRNA)
RNA: GGGAGUUCUACAGUCCGACGAUCCUUUCAGAAUGAGCAAAACACCAUCAACGUUAAUUCCAGAGAUGGAACAUUUUUUUUCCUAGUGAGAAAACAACCCAUUUGAAGAGAAGACCACUAAUGAGAAGACCACUAAAGAGAGACCAACAGAGGAUUGAGCAUCA
B14: ENSG00000198589:be:win_6401|CDS|ENSG00000198589|bound_else_gene|NA|bound_elsewhere_windowed (ssRNA)
RNA: GGGAGUUCUACAGUCCGACGAUCGUUAUCUUUUGCAAAAUACAGCCCUGGAGAUCUUUAUGGCAAACAGAGUUGCUGUGAUGUUCAACUUCCCAGACCCUGCAACAGUAAAGAAAGUGGUUAACUAUCUACCUCGUGUUGGCGCAACAGAGGAUUGAGCAUCA
B15: ENSG00000198589:be:win_7401|CDS|ENSG00000198589|bound_else_gene|NA|bound_elsewhere_windowed (ssRNA)
RNA: GGGAGUUCUACAGUCCGACGAUCUUCUCAACUACUCAUAGAGCCCCAUCCUCCCAGAGGUUCUGCCAUGCAAGUGAGUCCAUUGAUGUUCACAGACAAAGCCCAGCAGGAUGUUAUCAUGGUCCUCAAGUUUCCCUCCAACUCCAACAGAGGAUUGAGCAUCA
B16: chr17:15571490:15574098:-|three_prime_utr|ENSG00000251537|control|control|control (ssRNA)
RNA: GGGAGUUCUACAGUCCGACGAUCGGAAAAUGAAACAAAUGACAAUGUCAUUGCAUUGAUUUUGUUCUCAUUAAAUGGUAUUUUAGCUAUAAACAUUUUCCCCUUUGAUUUGCAAAAAAAAAUUAUAGAAAAUGUCUAUGUUGCCAACAGAGGAUUGAGCAUCA
B17: chr10:32033860:32033975:-|CDS|ENSG00000170759|unk|total|mutant (ssRNA)
RNA: GGGAGUUCUACAGUCCGACGAUCCACAGUGGAUAAAGAUAUUACUCUUACCAAUGAUAAACCAGCAACCGCAAUUGGAGUUACCGGAAAUUUUACUGAUGCUGAAAGAAGAAAGUGUGAAGAAGAAAUUGCUAAAUUAUACAACAACAGAGGAUUGAGCAUCA
B18: chr19:37127587:37127689:+|CDS|ENSG00000197050|unk|total|mutant (ssRNA)
RNA: GGGAGUUCUACAGUCCGACGAUCUAUGCAUGUAAGGAAUGUGGGAAGGCCUUUACUCAAAGCUCACAACUUAUUUUACAUCACCGAAUUCAUACUGGUGAAAAACCAUAUAAAUGUGAAGAAUGUGGGAAAGCCUUUAUUCGUCAACAGAGGAUUGAGCAUCA
B19: chr5:154417748:154417849:+|3pUTR|ENSG00000164574|msi1|total|mutant (ssRNA)
RNA: GGGAGUUCUACAGUCCGACGAUCCAGCACCAGCUUUACAGGGCAGUGUUUCAGAUGGCCCUGAGCCCACGGAAAAGGCCAGGCCGACCUCCAAACCCGAAAUGCUGGCUGAUUUGCCCUGAUCCAUGCUUCCAUUUCCCUGUCCAACAGAGGAUUGAGCAUCA
B20: chr9:76611375:76614569:-|three_prime_utr|ENSG00000106772|control|control|control (ssRNA)
RNA: GGGAGUUCUACAGUCCGACGAUCAUGUUACCUUUUUCCACUUUGCACUACCUGGUGCCAUUCUAAAUUUCUAAGGGGAAAAAUAGAAAGUUUGUUUACUCUUAAGAUAUUUUAUGAAAUUGUGUGUACUUUCCUAUUUUGCCACAACAGAGGAUUGAGCAUCA
B21: chr6:52502144:52502313:-|3pUTR|ENSG00000065308|msi1|total|mutant (ssRNA)
RNA: GGGAGUUCUACAGUCCGACGAUCUCAGCCAUUCACAAGCAUUCAAAACCAAACCAAACAGCAGUUCAUAUACCUGCCUGAGACCGGCUGGUCCUCACCUCCAGAGCCAGCCAGCCCCGUCAGGGGCCAAACUUACUACCUUGACAACAGAGGAUUGAGCAUCA
B22: chr13:106490488:106490589:-|3pUTR|ENSG00000125266|msi1|FALSE|unique (ssRNA)
RNA: GGGAGUUCUACAGUCCGACGAUCAGCCAUCAGAAGUUACUUUUAGGAUGGGGGAGAGGGGCGAGAAGGGGAAAAAUGGGAAAUAGUCUGAUUUUAAUGAAAUCAAAUGUAUGUAUCAUCAGUUGGCUACGUUUUGGUUCUAUGCAACAGAGGAUUGAGCAUCA

Each binder was assayed against MSI1 full-length (mouse, UniProt Q61474 1-362) (assay: nsRBNS (natural sequence RNA bind-n-seq); RBNS binding buffer (assumed for nsRBNS): 25 mM Tris pH 7.5, 150 mM KCl, 3 mM MgCl2, 0.01% Triton X-100, 500 ug/ml BSA, 20 U/ml SUPERase-In, 4 C; UNK is unkempt and MSI1 is Musashi-1; names of the RNAs are library labels; protein concentration not given here; high values mean tight binding).
UniProt Q61474, sequence (Q61474 whole entry): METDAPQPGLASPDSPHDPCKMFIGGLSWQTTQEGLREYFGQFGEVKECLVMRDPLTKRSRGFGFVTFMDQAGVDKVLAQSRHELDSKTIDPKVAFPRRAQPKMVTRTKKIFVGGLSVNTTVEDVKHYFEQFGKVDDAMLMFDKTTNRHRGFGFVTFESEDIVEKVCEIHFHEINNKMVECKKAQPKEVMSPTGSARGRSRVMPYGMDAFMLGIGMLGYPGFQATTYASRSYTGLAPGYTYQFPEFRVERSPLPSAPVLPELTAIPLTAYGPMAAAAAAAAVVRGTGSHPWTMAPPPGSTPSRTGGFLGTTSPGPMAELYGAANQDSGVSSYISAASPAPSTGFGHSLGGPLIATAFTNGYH
In the case of B1, the binding signal is reported as 0.499 enrichment R.
In the case of B2, the binding signal is reported as 1.32 enrichment R.
Work on B3 yielded a binding signal of 19.9 enrichment R.
B4 showed a binding signal of 0.46 enrichment R.
B5 was tested, and the binding signal was 0.7 enrichment R.
With B6 the binding signal was 0.459 enrichment R.
B7 gave a binding signal of 0.361 enrichment R.
For B8, the binding signal was 7.21 enrichment R.
Work on B9 yielded a binding signal of 0.521 enrichment R.
Work on B10 yielded a binding signal of 0.702 enrichment R.
In the case of B11, the binding signal is reported as 0.39 enrichment R.
B12 showed a binding signal of 0.362 enrichment R.
B13 was tested, and the binding signal was 0.397 enrichment R.
Binder B14 has a binding signal of 0.424 enrichment R.
With B15 the binding signal was 0.471 enrichment R.
For B16, the binding signal was 0.478 enrichment R.
For B17, the binding signal was 0.675 enrichment R.
Work on B18 yielded a binding signal of 0.278 enrichment R.
B19 showed a binding signal of 0.437 enrichment R.
Work on B20 yielded a binding signal of 1.45 enrichment R.
With B21 the binding signal was 0.877 enrichment R.
With B22 the binding signal was 10 enrichment R.
